# Data published in the supplement of paper PMC7826260.
# Some of the results follow. One pool of 16,384 single-stranded DNAs met each Rep nickase domain in vitro for 1 h at 37 °C with 3 µM enzyme; only the middle of the 90-letter strands is printed. Uncut reads are compared with the no-enzyme pool on a log2 scale; more negative means more cut, near 0 not cut, and no call is made. Because reads are shares of a total, they shift together; where an enzyme cuts many sequences, the uncut ones exceed 0.
# System: T1, Rep nickase domain of tomato golden mosaic virus
# T1 sequence (protein, residues 1-124, tag omitted): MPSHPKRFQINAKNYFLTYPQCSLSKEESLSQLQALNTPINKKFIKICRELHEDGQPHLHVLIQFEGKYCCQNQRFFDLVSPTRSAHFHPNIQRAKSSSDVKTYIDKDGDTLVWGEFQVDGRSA
# Assay: uncleaved DNA left, log2 of reads against the no-enzyme library (log2 ratio); higher = less cleavage (more negative = more Rep cleavage of the k-mer); sequences stand for … in CTCGTCCG…ACCGGAGA
# Method: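 A pool of 90-nt single-stranded DNAs with seven random bases just before the constant AC of the nick site (name = the seven bases) was cut by 3 µM recombinant His6-SUMO-tagged Rep nickase domain (300 nM DNA, 50 mM HEPES pH 8.0, 50 mM NaCl, 1 mM MnCl2, 1 h, 37 °C, three replicates). Uncut DNA was amplified and sequenced.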
row,Sequence,uncleaved DNA left (log2)
1,CCCTCGT,-0.0757
2,CTGGGTG,-0.0088
3,GTTTCTT,0.0916
4,CTCATCA,-0.125
5,TTCCCTT,-0.112
6,GGAAGTT,-0.0308
7,TCTCACC,-0.197
8,TAGTATA,0.0826
9,ATTTGTC,-0.0316
10,CTGCCAG,-0.0232
11,GCGTTAG,0.1
12,TGACCAA,-0.0414
13,ATGGCTA,-0.0203
14,TCGTGAA,0.195
15,GATGACA,0.00901
16,CTGATTC,-0.19
17,AGCGTTC,-0.0198
18,CCGCAGA,-0.0605
19,AGCAGGG,0.146
20,TAACGAT,-0.159

row,Sequence,uncleaved DNA left (log2)
1,CCTCAGG,0.209
2,CGCTGTA,-0.211
3,CCGACAC,0.0806
4,AGCCGAT,0.113
5,CGGCAAG,0.0859
6,GAACAGG,-0.00555
7,CGGCATG,0.0373
8,CCATGAC,0.162
9,TTATGAC,-0.04
10,CACGTCC,0.0434
11,CCCAGCC,-0.0729
12,GCAATTA,0.0522
13,GTTTTCC,-0.0501
14,CACCCGC,-0.193
15,TGGAGCC,-0.195
16,ATAGAGA,0.178
17,ACTGCTG,0.172
18,ATAACTG,0.149
19,AAGCTTG,0.151
20,CCGATCT,-0.0917
